T1: RBFOX1 RRM RbFoxmut (Fox-RRM*) (Homo sapiens, UniProt Q9NWB1 109-208, R118D;E147R;N151S;E152T)
T1 sequence: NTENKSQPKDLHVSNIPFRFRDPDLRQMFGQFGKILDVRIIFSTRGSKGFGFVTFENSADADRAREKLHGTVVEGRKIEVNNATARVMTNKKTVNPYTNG

B1: CUUCUGA (DNA:RNA)
RNA: GGGAGACCGGAAUUCAGAUUGUCCCUUCUGAUUAAAUCCCGUCGUAGCCACCA
DNA 1: CAATCTGAATTCCGGTCTCCC
DNA 2: TGGTGGCTACGACGGGATT
B2: ACGACCU (DNA:RNA)
RNA: GGGAGACCGGAAUUCAGAUUGUCCACGACCUUUAAAUCCCGUCGUAGCCACCA
DNA 1: CAATCTGAATTCCGGTCTCCC
DNA 2: TGGTGGCTACGACGGGATT
B3: ACGCAAG (DNA:RNA)
RNA: B2 RNA with A28C, C29A, C30A, U31G
DNA 1: CAATCTGAATTCCGGTCTCCC
DNA 2: TGGTGGCTACGACGGGATT
B4: GCGAUCG (DNA:RNA)
RNA: B2 RNA with A25G, C29U, U31G
DNA 1: CAATCTGAATTCCGGTCTCCC
DNA 2: TGGTGGCTACGACGGGATT
B5: AGGCUGU (DNA:RNA)
RNA: B2 RNA with C26G, A28C, C29U, C30G
DNA 1: CAATCTGAATTCCGGTCTCCC
DNA 2: TGGTGGCTACGACGGGATT
B6: GUAGAGC (DNA:RNA)
RNA: B1 RNA with C25G, U27A, C28G, U29A, A31C
DNA 1: CAATCTGAATTCCGGTCTCCC
DNA 2: TGGTGGCTACGACGGGATT
B7: CUUCGGC (DNA:RNA)
RNA: B1 RNA with U29G, A31C
DNA 1: CAATCTGAATTCCGGTCTCCC
DNA 2: TGGTGGCTACGACGGGATT
B8: CGCAAGA (DNA:RNA)
RNA: B1 RNA with U26G, U27C, C28A, U29A
DNA 1: CAATCTGAATTCCGGTCTCCC
DNA 2: TGGTGGCTACGACGGGATT
B9: UUUUAGU (DNA:RNA)
RNA: B1 RNA with C25U, C28U, U29A, A31U
DNA 1: CAATCTGAATTCCGGTCTCCC
DNA 2: TGGTGGCTACGACGGGATT
B10: ACGGACU (DNA:RNA)
RNA: B2 RNA with A28G, C29A
DNA 1: CAATCTGAATTCCGGTCTCCC
DNA 2: TGGTGGCTACGACGGGATT
B11: GCCCAAG (DNA:RNA)
RNA: B2 RNA with A25G, G27C, A28C, C29A, C30A, U31G
DNA 1: CAATCTGAATTCCGGTCTCCC
DNA 2: TGGTGGCTACGACGGGATT
B12: CGAUCCU (DNA:RNA)
RNA: B2 RNA with A25C, C26G, G27A, A28U
DNA 1: CAATCTGAATTCCGGTCTCCC
DNA 2: TGGTGGCTACGACGGGATT
B13: CAUUGCU (DNA:RNA)
RNA: B2 RNA with A25C, C26A, G27U, A28U, C29G
DNA 1: CAATCTGAATTCCGGTCTCCC
DNA 2: TGGTGGCTACGACGGGATT
B14: CUUUAUU (DNA:RNA)
RNA: B1 RNA with C28U, U29A, G30U, A31U
DNA 1: CAATCTGAATTCCGGTCTCCC
DNA 2: TGGTGGCTACGACGGGATT
B15: UUCACAG (DNA:RNA)
RNA: B2 RNA with A25U, C26U, G27C, C30A, U31G
DNA 1: CAATCTGAATTCCGGTCTCCC
DNA 2: TGGTGGCTACGACGGGATT
B16: UCAGAUU (DNA:RNA)
RNA: B2 RNA with A25U, G27A, A28G, C29A, C30U
DNA 1: CAATCTGAATTCCGGTCTCCC
DNA 2: TGGTGGCTACGACGGGATT
B17: ACUUCCC (DNA:RNA)
RNA: B2 RNA with G27U, A28U, U31C
DNA 1: CAATCTGAATTCCGGTCTCCC
DNA 2: TGGTGGCTACGACGGGATT
B18: ACGACGG (DNA:RNA)
RNA: B2 RNA with C30G, U31G
DNA 1: CAATCTGAATTCCGGTCTCCC
DNA 2: TGGTGGCTACGACGGGATT
B19: GGCUUCG (DNA:RNA)
RNA: B2 RNA with A25G, C26G, G27C, A28U, C29U, U31G
DNA 1: CAATCTGAATTCCGGTCTCCC
DNA 2: TGGTGGCTACGACGGGATT
B20: UUUCGCA (DNA:RNA)
RNA: B1 RNA with C25U, U29G, G30C
DNA 1: CAATCTGAATTCCGGTCTCCC
DNA 2: TGGTGGCTACGACGGGATT

Positions count from the first letter of the chain named. Some of the results follow.

The target of this experiment is T1, RBFOX1 RRM RbFoxmut (Fox-RRM*). Briefly: EMSA; HiTS-Eq, 1 nM pool, 10 min; buffer printed only for the single-RNA assays: 10 mM Tris pH 7.5, 150 mM NaCl, 3.4 mM EDTA, 0.001% NP-40, 30 C. The following applies: tags: His6 N-terminal (pET28a); label: 5' 32P. An outline of the steps: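 Purified RbFox RRM, wild type or mutant, was incubated for 10 min in 50 µL with 1 nM of a 5′-radiolabelled RNA pool carrying 7 randomized nucleotides, whose flanks were annealed to DNA oligonucleotides, over a series of increasing protein concentrations. Unbound RNA was resolved on 8% native PAGE, cut out, reverse-transcribed, barcoded by PCR and sequenced on an Illumina HiSeq 2500. Relative association constants were derived from changes in read counts for each RNA species versus the control reaction and normalised to the cognate motif.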
(In general: A gel shift assay detects complexes by their altered migration in electrophoresis.)
For B1, the binding signal was 0.114 KA relative to UGCAUGU.

For B2, the binding signal is 0.0534 KA relative to UGCAUGU.

With B3, the binding signal is 0.113 KA relative to UGCAUGU.

As for B4, the binding signal was 0.13 KA relative to UGCAUGU.

B5: the binding signal was 0.122 KA relative to UGCAUGU.

Regarding B6, the binding signal was 0.126 KA relative to UGCAUGU.

Take B7: the binding signal is 0.0704 KA relative to UGCAUGU.

With B8, the binding signal was 0.0865 KA relative to UGCAUGU.

In the case of B9, the binding signal was 0.112 KA relative to UGCAUGU.

For B10, the binding signal was 0.062 KA relative to UGCAUGU.

For B11, the binding signal was 0.104 KA relative to UGCAUGU.

With B12, the binding signal was 0.0439 KA relative to UGCAUGU.

Turning to B13, the binding signal is 0.126 KA relative to UGCAUGU.

As to B14, the binding signal is 0.117 KA relative to UGCAUGU.

For the molecule B15, the binding signal is 0.0761 KA relative to UGCAUGU.

B16: the binding signal is 0.0844 KA relative to UGCAUGU.

Take B17: the binding signal is 0.062 KA relative to UGCAUGU.

Turning to B18, the binding signal is 0.095 KA relative to UGCAUGU.

Take B19: the binding signal is 0.171 KA relative to UGCAUGU.

As for B20, the binding signal is 0.151 KA relative to UGCAUGU.

For the origin of these results see paper PMC9911399, “Two distinct binding modes provide the RNA-binding protein RbFox with extraordinary sequence specificity”.
